The values that follow come from the supplement of paper PMC12217912.

Sequences and labels used below:
B1: TEV protease; numbered along this chain (parent)
chain: MGESLFKGPRDYNPISSSICHLTNESDGHTTSLYGIGFGPFIITNKHLFRRNNGTLVVQSLHGVFKVKDTTTLQQHLVDGRDMIIIRMPKDFPPFPQKLKFREPQREERICLVTTNFQTKSMSSMVSDTSCTFPSGDGIFWKHWIQTKDGQCGSPLVSTRDGFIVGIHSASNFTNTNNYFTSVPKNFMELLTNQEAQQWVSGWRLNADSVLWGGHKVFMVKPEEPFQPVKEATQL

Some of the results follow. The full chains were built here from the parent and the listed change. Values near 0.05 are background.

In this experiment the parent is B1. The experiment in a line: raw area under fraction-flipped curve 0-4 h after induction (AUC4h, not background-subtracted), DNA-recorder readout of cleavage of the substrate (dimensionless); higher = more cleavage of the substrate by the protease variant. The note with it: temperature: 34 °C; time window: 0-4 h after rhamnose induction. As to the method:
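In vivo DNA recorder in E. coli TOP10(DE3) ΔrhaA at 34 °C. Each TEVp single-site mutant (parent TEVp 0) is paired with a single-site variant of the 7-mer TEVs (canonical ENLYFQ|S). The substrate sits between flexible linkers in a Bxb1-sfGFP-TEVs-SsrA fusion, so cleavage stabilises Bxb1 and speeds flipping of a recombination array, read by NGS. The value is the raw area under the fraction-flipped curve over 0-4 h after rhamnose induction (AUC4h), with ≥20 reads per time point. It is not background-subtracted; inactive controls average about 0.047.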
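Also: Bxb1 expression induced with 0.2% (w/v) L-rhamnose at OD600 near 0.5, cultures sampled hourly, flipped fraction per protease–substrate barcode pair counted by paired-end Illumina sequencing.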

Consider MGESLFAGPRDYNPISSSICHLTNESDGHTTSLYGIGFGPFIITNKHLFRRNNGTLVVQSLHGVFKVKDTTTLQQHLVDGRDMIIIRMPKDFPPFPQKLKFREPQREERICLVTTNFQTKSMSSMVSDTSCTFPSGDGIFWKHWIQTKDGQCGSPLVSTRDGFIVGIHSASNFTNTNNYFTSVPKNFMELLTNQEAQQWVSGWRLNADSVLWGGHKVFMVKPEEPFQPVKEATQL [K7A], for which the “area with substrate EALYFQS” value came out at 0.155, the “area with substrate ECLYFQS” value came to 0.103, the “area with substrate EELYFQS” value was 0.112 and the “area with substrate EFLYFQS” value was found to be 0.154. Besides, the “area with substrate EGLYFQS” value amounted to 0.0988, the “area with substrate EILYFQS” value was 0.112, the “area with substrate EKLYFQS” value is 0.107 and the “area with substrate EMLYFQS” value stood at 0.122. The “area with substrate EQLYFQS” value is 0.117, the “area with substrate ESLYFQS” value stood at 0.0908 and the “area with substrate EVLYFQS” value turned out to be 0.104.

For MGESLFKGARDYNPISSSICHLTNESDGHTTSLYGIGFGPFIITNKHLFRRNNGTLVVQSLHGVFKVKDTTTLQQHLVDGRDMIIIRMPKDFPPFPQKLKFREPQREERICLVTTNFQTKSMSSMVSDTSCTFPSGDGIFWKHWIQTKDGQCGSPLVSTRDGFIVGIHSASNFTNTNNYFTSVPKNFMELLTNQEAQQWVSGWRLNADSVLWGGHKVFMVKPEEPFQPVKEATQL [P9A], the “area with substrate EALYFQS” value came to 0.123, the “area with substrate ECLYFQS” value stood at 0.0861, the “area with substrate EDLYFQS” value came out at 0.143 and the “area with substrate EGLYFQS” value was 0.0797. Further, the “area with substrate EHLYFQS” value is 0.104, the “area with substrate EKLYFQS” value is 0.0824, the “area with substrate EMLYFQS” value worked out at 0.117 and the “area with substrate EQLYFQS” value stood at 0.103. Also, the “area with substrate ERLYFQS” value worked out at 0.0963 and the “area with substrate EVLYFQS” value stood at 0.0823.

For the variant MGESLFKGPRRYNPISSSICHLTNESDGHTTSLYGIGFGPFIITNKHLFRRNNGTLVVQSLHGVFKVKDTTTLQQHLVDGRDMIIIRMPKDFPPFPQKLKFREPQREERICLVTTNFQTKSMSSMVSDTSCTFPSGDGIFWKHWIQTKDGQCGSPLVSTRDGFIVGIHSASNFTNTNNYFTSVPKNFMELLTNQEAQQWVSGWRLNADSVLWGGHKVFMVKPEEPFQPVKEATQL [D11R], the “area with substrate EALYFQS” value stood at 0.128, the “area with substrate ECLYFQS” value amounted to 0.116, the “area with substrate EELYFQS” value was 0.134 and the “area with substrate EFLYFQS” value worked out at 0.082. The “area with substrate EILYFQS” value worked out at 0.108, the “area with substrate EKLYFQS” value stood at 0.119, the “area with substrate ELLYFQS” value was 0.0875 and the “area with substrate EMLYFQS” value was 0.123. Also, the “area with substrate EPLYFQS” value came to 0.13, the “area with substrate EQLYFQS” value stood at 0.132, the “area with substrate ERLYFQS” value worked out at 0.107 and the “area with substrate ESLYFQS” value was 0.123. Moreover, the “area with substrate EVLYFQS” value stood at 0.104 and the “area with substrate EWLYFQS” value worked out at 0.109.

Take MGESLFKGPRIYNPISSSICHLTNESDGHTTSLYGIGFGPFIITNKHLFRRNNGTLVVQSLHGVFKVKDTTTLQQHLVDGRDMIIIRMPKDFPPFPQKLKFREPQREERICLVTTNFQTKSMSSMVSDTSCTFPSGDGIFWKHWIQTKDGQCGSPLVSTRDGFIVGIHSASNFTNTNNYFTSVPKNFMELLTNQEAQQWVSGWRLNADSVLWGGHKVFMVKPEEPFQPVKEATQL [D11I]: the “area with substrate EALYFQS” value is 0.0975, the “area with substrate ECLYFQS” value is 0.0961, the “area with substrate EDLYFQS” value came out at 0.0907 and the “area with substrate EGLYFQS” value was 0.0417. In addition, the “area with substrate EILYFQS” value is 0.0709, the “area with substrate ELLYFQS” value was determined as 0.0814, the “area with substrate EMLYFQS” value was 0.0953 and the “area with substrate EPLYFQS” value is 0.114. Further, the “area with substrate EQLYFQS” value was found to be 0.0998, the “area with substrate ESLYFQS” value was found to be 0.0943 and the “area with substrate EWLYFQS” value stood at 0.115.

Consider MGESLFKGPRKYNPISSSICHLTNESDGHTTSLYGIGFGPFIITNKHLFRRNNGTLVVQSLHGVFKVKDTTTLQQHLVDGRDMIIIRMPKDFPPFPQKLKFREPQREERICLVTTNFQTKSMSSMVSDTSCTFPSGDGIFWKHWIQTKDGQCGSPLVSTRDGFIVGIHSASNFTNTNNYFTSVPKNFMELLTNQEAQQWVSGWRLNADSVLWGGHKVFMVKPEEPFQPVKEATQL [D11K], for which the “area with substrate EALYFQS” value was 0.0963, the “area with substrate ECLYFQS” value came out at 0.0965, the “area with substrate EDLYFQS” value worked out at 0.116 and the “area with substrate EELYFQS” value was determined as 0.112. For the same variant, the “area with substrate EGLYFQS” value amounted to 0.136, the “area with substrate EHLYFQS” value is 0.168, the “area with substrate EILYFQS” value turned out to be 0.116 and the “area with substrate EKLYFQS” value was determined as 0.0637. The “area with substrate ELLYFQS” value is 0.111, the “area with substrate EMLYFQS” value worked out at 0.0784, the “area with substrate ERLYFQS” value worked out at 0.107 and the “area with substrate ESLYFQS” value was found to be 0.0882. The “area with substrate ETLYFQS” value was determined as 0.11, the “area with substrate EVLYFQS” value came to 0.076 and the “area with substrate EYLYFQS” value came out at 0.069.

MQESLFKGPRDYNPISSSICHLTNESDGHTTSLYGIGFGPFIITNKHLFRRNNGTLVVQSLHGVFKVKDTTTLQQHLVDGRDMIIIRMPKDFPPFPQKLKFREPQREERICLVTTNFQTKSMSSMVSDTSCTFPSGDGIFWKHWIQTKDGQCGSPLVSTRDGFIVGIHSASNFTNTNNYFTSVPKNFMELLTNQEAQQWVSGWRLNADSVLWGGHKVFMVKPEEPFQPVKEATQL [G2Q]: the “area with substrate EALYFQS” value worked out at 0.123, the “area with substrate ECLYFQS” value stood at 0.129, the “area with substrate EDLYFQS” value came to 0.119 and the “area with substrate EELYFQS” value is 0.13. Moreover, the “area with substrate EFLYFQS” value was determined as 0.132, the “area with substrate EGLYFQS” value is 0.0983, the “area with substrate EILYFQS” value turned out to be 0.0878 and the “area with substrate EKLYFQS” value is 0.135. Further, the “area with substrate ELLYFQS” value is 0.11, the “area with substrate EPLYFQS” value was determined as 0.143, the “area with substrate EQLYFQS” value came out at 0.145 and the “area with substrate ERLYFQS” value is 0.0889. Further, the “area with substrate ESLYFQS” value was 0.115, the “area with substrate ETLYFQS” value came to 0.11, the “area with substrate EVLYFQS” value is 0.0938 and the “area with substrate EWLYFQS” value came out at 0.0826.

Consider MGESLFKGPRDPNPISSSICHLTNESDGHTTSLYGIGFGPFIITNKHLFRRNNGTLVVQSLHGVFKVKDTTTLQQHLVDGRDMIIIRMPKDFPPFPQKLKFREPQREERICLVTTNFQTKSMSSMVSDTSCTFPSGDGIFWKHWIQTKDGQCGSPLVSTRDGFIVGIHSASNFTNTNNYFTSVPKNFMELLTNQEAQQWVSGWRLNADSVLWGGHKVFMVKPEEPFQPVKEATQL [Y12P], for which the “area with substrate EALYFQS” value was found to be 0.102, the “area with substrate ECLYFQS” value came to 0.0851, the “area with substrate EDLYFQS” value amounted to 0.13 and the “area with substrate EELYFQS” value was found to be 0.124. The “area with substrate EFLYFQS” value came out at 0.101, the “area with substrate EGLYFQS” value came to 0.0631, the “area with substrate EHLYFQS” value was 0.09 and the “area with substrate EKLYFQS” value was 0.1. In addition, the “area with substrate ELLYFQS” value is 0.105, the “area with substrate EMLYFQS” value is 0.104, the “area with substrate EPLYFQS” value amounted to 0.107 and the “area with substrate EQLYFQS” value was determined as 0.107. The “area with substrate ESLYFQS” value was 0.111, the “area with substrate ETLYFQS” value is 0.0933, the “area with substrate EVLYFQS” value stood at 0.0873 and the “area with substrate EYLYFQS” value was 0.108.

On to MGESLFKGPRDYNPISSFICHLTNESDGHTTSLYGIGFGPFIITNKHLFRRNNGTLVVQSLHGVFKVKDTTTLQQHLVDGRDMIIIRMPKDFPPFPQKLKFREPQREERICLVTTNFQTKSMSSMVSDTSCTFPSGDGIFWKHWIQTKDGQCGSPLVSTRDGFIVGIHSASNFTNTNNYFTSVPKNFMELLTNQEAQQWVSGWRLNADSVLWGGHKVFMVKPEEPFQPVKEATQL [S18F], for which the “area with substrate EALYFQS” value came to 0.115, the “area with substrate ECLYFQS” value stood at 0.096, the “area with substrate EELYFQS” value is 0.0903 and the “area with substrate EGLYFQS” value was found to be 0.0901. Moreover, the “area with substrate EHLYFQS” value was determined as 0.0772, the “area with substrate EILYFQS” value stood at 0.0931, the “area with substrate EKLYFQS” value worked out at 0.0965 and the “area with substrate ELLYFQS” value is 0.108. For the same variant, the “area with substrate EMLYFQS” value stood at 0.0914, the “area with substrate EPLYFQS” value was found to be 0.0908, the “area with substrate EQLYFQS” value is 0.101 and the “area with substrate ERLYFQS” value was 0.107. For the same variant, the “area with substrate ESLYFQS” value amounted to 0.0902, the “area with substrate ETLYFQS” value turned out to be 0.0886, the “area with substrate EVLYFQS” value was found to be 0.0702 and the “area with substrate EYLYFQS” value was found to be 0.0921.

Consider MGESLFKGPRDYNPISSPICHLTNESDGHTTSLYGIGFGPFIITNKHLFRRNNGTLVVQSLHGVFKVKDTTTLQQHLVDGRDMIIIRMPKDFPPFPQKLKFREPQREERICLVTTNFQTKSMSSMVSDTSCTFPSGDGIFWKHWIQTKDGQCGSPLVSTRDGFIVGIHSASNFTNTNNYFTSVPKNFMELLTNQEAQQWVSGWRLNADSVLWGGHKVFMVKPEEPFQPVKEATQL [S18P], for which the “area with substrate EALYFQS” value was found to be 0.0958, the “area with substrate ECLYFQS” value was 0.056, the “area with substrate EELYFQS” value amounted to 0.0806 and the “area with substrate EFLYFQS” value stood at 0.0912. The “area with substrate EGLYFQS” value came to 0.0547, the “area with substrate EILYFQS” value was found to be 0.059, the “area with substrate EKLYFQS” value worked out at 0.0927 and the “area with substrate ELLYFQS” value was 0.0643. The “area with substrate EMLYFQS” value amounted to 0.073, the “area with substrate EPLYFQS” value is 0.0983, the “area with substrate EQLYFQS” value came out at 0.0887 and the “area with substrate ESLYFQS” value came to 0.0599. For the same variant, the “area with substrate ETLYFQS” value worked out at 0.0634, the “area with substrate EVLYFQS” value is 0.0789, the “area with substrate EWLYFQS” value was 0.0857 and the “area with substrate EYLYFQS” value was 0.0667.
